{"source": "the supplement of paper PMC9446081", "note": "Screen size: about 39,000 compounds; about 220 (0.56%) showed activity. Some of the results follow.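 Note: static incubation at 37 °C against the wild-type strain, values averaged over two biological replicates.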", "data": [{"tested_on": "Escherichia coli K-12 BW25113", "test": "relative growth (OD600 normalised to plate interquartile mean) (fraction); higher = less growth inhibition, active = 0.2 or less", "details": "50 µM; LB; incubation time: overnight (16-24 h)", "values": [{"smiles": "C[C@@H](N)C(=O)OC(C)(C)Cc1ccc(Cl)cc1", "relative growth": "inactive: 0.985"}, {"smiles": "CC(C)NC(=O)Nc1ccc2c(c1)CC(=O)N([C@H](C)CO)C[C@@H](C)[C@@H](CN(C)S(=O)(=O)c1ccccc1)O2", "relative growth": "inactive: 1.01"}, {"smiles": "COc1cccc(NC(=O)N[C@H]2C=C[C@@H](CC(=O)N3CCOCC3)O[C@@H]2CO)c1", "relative growth": "inactive: 0.898"}, {"smiles": "COc1cccc(S(=O)(=O)N[C@H]2CC[C@@H](CC(=O)NC3CCC3)O[C@@H]2CO)c1", "relative growth": "inactive: 0.989"}, {"smiles": "CC[C@@](C)(Nc1n[nH]c(=O)[nH]c1=O)C(=O)O", "relative growth": "inactive: 1.03"}, {"smiles": "C=CCCC(=O)O[C@@H](c1ccccc1)[C@@H](C)N(C)C(=O)[C@H](CC=C)NC(=O)OCC1c2ccccc2-c2ccccc21", "relative growth": "inactive: 1.02"}, {"smiles": "CCOn1ccnc1", "relative growth": "inactive: 0.993"}, {"smiles": "C[C@H]1CN([C@@H](C)CO)C(=O)c2cc(NS(C)(=O)=O)ccc2O[C@H]1CN(C)S(=O)(=O)c1ccc(Cl)cc1", "relative growth": "inactive: 0.974"}, {"smiles": "O=C(O)c1cc2ccc(O)c(=O)c-2c(O)c(O)c1", "relative growth": "inactive: 0.987"}, {"smiles": "C[C@@H]1CCCCO[C@@H](CN(C)C(=O)Nc2cccc3ccccc23)[C@H](C)CN([C@@H](C)CO)C(=O)c2cc(NC(=O)NC3CCCCC3)ccc2O1", "relative growth": "inactive: 1.03"}, {"smiles": "C=CCOC(=O)[C@H]1[C@@H]2C(=O)O[C@@H](c3ccccc3)[C@@H](c3ccccc3)N2[C@@H](c2ccc(OCCOC(=O)[C@H]3C[C@H]4C(=O)NCC(=O)N4[C@H]3c3ccc(O)cc3)cc2)[C@]12C(=O)Nc1ccc(I)cc12", "relative growth": "inactive: 1.06"}, {"smiles": "C[C@@H]1CN([C@H](C)CO)C(=O)c2cc(NC(=O)CCN3CCOCC3)ccc2O[C@@H]1CN(C)C(=O)NC1CCCCC1", "relative growth": "inactive: 1.03"}, {"smiles": "C[C@H]1CCCCO[C@@H](CN(C)S(=O)(=O)c2ccccc2)[C@@H](C)CN([C@@H](C)CO)C(=O)c2cc(NC(=O)Nc3ccc(C(F)(F)F)cc3)ccc2O1", "relative growth": "inactive: 0.983"}, {"smiles": "C[C@H]1CN([C@@H](C)CO)C(=O)c2cc(C#Cc3cccc(F)c3)cnc2O[C@H]1CN(C)CC1CCOCC1", "relative growth": "inactive: 1.02"}, {"smiles": "C[C@@H]1CN([C@H](C)CO)C(=O)c2cc(NC(=O)C3CCCCC3)ccc2O[C@@H](C)CCCCO[C@H]1CN(C)Cc1ccc(C(=O)O)cc1", "relative growth": "inactive: 0.997"}, {"smiles": "O=C(C[C@@H]1C[C@H]2c3cc(NS(=O)(=O)c4ccc(F)cc4)ccc3O[C@H]2[C@H](CO)O1)NCCN1CCCCC1", "relative growth": "inactive: 1.01"}, {"smiles": "C[C@H]1CN([C@@H](C)CO)C(=O)c2cccc(NS(=O)(=O)c3cn(C)cn3)c2O[C@H]1CN(C)C(=O)Nc1ccc(F)cc1", "relative growth": "inactive: 0.979"}, {"smiles": "CC(C)NC(=O)Nc1cccc2c1O[C@@H](CN(C)S(=O)(=O)c1ccc(Cl)cc1)[C@@H](C)CN([C@@H](C)CO)C2=O", "relative growth": "inactive: 1.01"}, {"smiles": "C[C@@H]1CN([C@@H](C)CO)C(=O)c2cc(NC(=O)NC3CCCCC3)ccc2O[C@@H](C)CCCCO[C@@H]1CN(C)CC1CCCCC1", "relative growth": "inactive: 1.01"}, {"smiles": "Nc1ncnc2c1ncn2[C@@H]1O[C@H](CSCC[C@H](N)C(=O)O)[C@@H](O)[C@H]1O", "relative growth": "inactive: 0.995"}, {"smiles": "CCS(=O)(=O)N1C[C@]2(CCN(CC2)C(=O)Cc2ccccc2)c2c(n(c3cc(ccc23)OC)C)[C@@H]1CO", "relative growth": "inactive: 0.978"}, {"smiles": "COc1cc(C=CC(=O)O)ccc1O", "relative growth": "inactive: 0.846"}, {"smiles": "COc1c2ccoc2cc2oc(C)cc(=O)c12", "relative growth": "inactive: 1.02"}, {"smiles": "C[C@@H]1CN([C@@H](C)CO)C(=O)Cc2cc(NS(=O)(=O)c3cn(C)cn3)ccc2O[C@@H]1CN(C)CC1CCCCC1", "relative growth": "inactive: 0.997"}, {"smiles": "O=C(C[C@@H]1C[C@H]2c3cc(NC(=O)C4CCOCC4)ccc3O[C@H]2[C@H](CO)O1)NCc1ccc(Cl)cc1", "relative growth": "inactive: 0.997"}, {"smiles": "COc1ccc(S(=O)(=O)N2C[C@H](O)COC[C@@H]3O[C@@H](CC(=O)N[C@H]4CCN(Cc5ccccc5)C4)CC[C@H]32)cc1", "relative growth": "inactive: 0.993"}, {"smiles": "CO[C@@H]1CN(C)C(=O)c2cc(NC(=O)Nc3ccccc3)ccc2OC[C@H](C)N(C(=O)CN(C)C)C[C@@H]1C", "relative growth": "inactive: 1.01"}, {"smiles": "O=c1cccn[nH]1", "relative growth": "inactive: 1.01"}, {"smiles": "C[C@H](CO)N1C[C@H](C)[C@H](CN(C)C(=O)Nc2ccc(C(F)(F)F)cc2)OCc2cnnn2CCCC1=O", "relative growth": "inactive: 1"}, {"smiles": "C[C@@H]1CN(C(=N)N)C[C@H](C)O1", "relative growth": "inactive: 1.01"}, {"smiles": "O=C(C[C@H]1CC[C@@H]2[C@H](COC[C@H](O)CN2S(=O)(=O)c2ccc(Cl)cc2)O1)N[C@@H]1CCN(Cc2ccccc2)C1", "relative growth": "inactive: 0.998"}, {"smiles": "COc1ccc(C2=N[C@H](c3ccc(Cl)cc3)[C@H](c3ccc(Cl)cc3)N2C(=O)N2CCNC(=O)C2)c(OC(C)C)c1", "relative growth": "inactive: 0.989"}, {"smiles": "Cc1noc(C)c1S(=O)(=O)Nc1ccc2c(c1)C(=O)N([C@@H](C)CO)C[C@H](C)[C@@H](CN(C)CC1CC1)O2", "relative growth": "inactive: 1.01"}, {"smiles": "Cc1noc(C)c1S(=O)(=O)Nc1ccc2c(c1)C(=O)N([C@H](C)CO)C[C@H](C)[C@H](CN(C)C(=O)Nc1ccccc1)OCCCC[C@H](C)O2", "relative growth": "inactive: 0.989"}, {"smiles": "Cn1c(=O)c2c(ncn2CC(=O)NS(=O)(=O)c2ccccc2)n(C)c1=O", "relative growth": "inactive: 1"}, {"smiles": "CN(C)C(=O)CN1CCC2(CC1)O[C@H](C(=O)NCc1ccccn1)Cn1ccnc12", "relative growth": "inactive: 0.994"}, {"smiles": "C[C@@H]1CCCCO[C@H](CN(C)C(=O)NC2CCCCC2)[C@@H](C)CN([C@@H](C)CO)C(=O)c2cc(NS(=O)(=O)c3ccccc3)ccc2O1", "relative growth": "inactive: 1.01"}, {"smiles": "C[C@H](CO)N1C[C@H](C)[C@@H](CN(C)S(=O)(=O)c2cn(C)cn2)Oc2c(NC(=O)c3ccc(-c4nccs4)cc3)cccc2C1=O", "relative growth": "inactive: 0.98"}, {"smiles": "COc1ccc(NC(=O)Nc2ccc3c(c2)CC(=O)N([C@@H](C)CO)C[C@H](C)[C@H](CN(C)S(=O)(=O)c2c(C)noc2C)O3)cc1", "relative growth": "inactive: 1.01"}, {"smiles": "Cc1ccc(S(=O)(=O)Nc2ccc3c(c2)CC(=O)N([C@H](C)CO)C[C@@H](C)[C@@H](CN(C)Cc2ccc(Cl)c(Cl)c2)O3)cc1", "relative growth": "inactive: 1.01"}, {"smiles": "Cc1ccc(S(=O)(=O)N(C)C[C@@H]2OCCCC[C@H](C)Oc3ccc(NS(C)(=O)=O)cc3C(=O)N([C@@H](C)CO)C[C@@H]2C)cc1", "relative growth": "inactive: 0.996"}, {"smiles": "Cc1noc(C)c1NC(=O)N(C)C[C@@H]1OCCCC[C@@H](C)Oc2ccc(NC(=O)C3CCCCC3)cc2C(=O)N([C@H](C)CO)C[C@@H]1C", "relative growth": "inactive: 0.994"}, {"smiles": "C[C@@H]1CN([C@H](C)CO)S(=O)(=O)c2ccc(-c3cccnc3)cc2O[C@@H]1CN(C)C(=O)c1cccc(F)c1", "relative growth": "inactive: 1.05"}, {"smiles": "C[C@H]1CN([C@@H](C)CO)C(=O)c2cccc(NS(=O)(=O)c3cccs3)c2O[C@H]1CN(C)S(=O)(=O)c1ccc(F)cc1", "relative growth": "inactive: 0.993"}, {"smiles": "C[C@H]1CCCCO[C@H](CN(C)Cc2ccc3c(c2)OCO3)[C@@H](C)CN([C@@H](C)CO)C(=O)c2cc(NC(=O)NC3CCCCC3)ccc2O1", "relative growth": "inactive: 1.01"}, {"smiles": "Cc1sc2[nH]cnc(=S)c2c1C", "relative growth": "inactive: 0.958"}, {"smiles": "C[C@@H]1CCCCO[C@H](CN(C)C(=O)Nc2ccc(C(F)(F)F)cc2)[C@H](C)CN([C@@H](C)CO)C(=O)c2cc(N(C)C)ccc2O1", "relative growth": "inactive: 0.964"}, {"smiles": "C[C@@H]1CCCCO[C@@H](CN(C)Cc2ccc(Cl)c(Cl)c2)[C@@H](C)CN([C@H](C)CO)C(=O)c2cc(NC(=O)c3ccncc3)ccc2O1", "relative growth": "inactive: 1.01"}, {"smiles": "COc1ccc(S(=O)(=O)N(C)C[C@@H]2OCCCC[C@H](C)Oc3ccc(NC(=O)Nc4ccc(C(F)(F)F)cc4)cc3C(=O)N([C@@H](C)CO)C[C@@H]2C)cc1", "relative growth": "inactive: 1.04"}, {"smiles": "COc1ccc(NC(=O)Nc2ccc3c(c2)C(=O)N([C@@H](C)CO)C[C@H](C)[C@H](CN(C)CC2CCCCC2)OCCCC[C@@H](C)O3)cc1", "relative growth": "inactive: 1.02"}, {"smiles": "CCCN1C[C@H](C(=O)O)CCC1=O", "relative growth": "inactive: 1.01"}, {"smiles": "C[C@H](CO)N1C[C@H](C)[C@@H](CN(C)Cc2ccc3c(c2)OCO3)Oc2ccc(NC(=O)Nc3ccc(C(F)(F)F)cc3)cc2CC1=O", "relative growth": "inactive: 0.988"}, {"smiles": "N[C@H]1CCN(c2ccc(C(F)(F)F)cn2)C1", "relative growth": "inactive: 1"}, {"smiles": "COc1ccc(CN(C)C[C@H]2Oc3c(NS(C)(=O)=O)cccc3C(=O)N([C@H](C)CO)C[C@@H]2C)cc1", "relative growth": "inactive: 0.989"}, {"smiles": "C[C@@H]1CN([C@H](C)CO)C(=O)c2cc(NC(=O)Nc3ccc(F)cc3)ccc2O[C@H]1CN(C)Cc1ccc(Oc2ccccc2)cc1", "relative growth": "inactive: 0.964"}, {"smiles": "NCC(=O)CCC(=O)O", "relative growth": "inactive: 1.02"}, {"smiles": "Cn1cnc(CCNC(=O)C[C@H]2CC[C@@H]3[C@H](COC[C@@H](O)CN3C(=O)Nc3ccc(Cl)cc3)O2)c1", "relative growth": "inactive: 0.93"}, {"smiles": "COc1ccc2c3c(n(c2c1)C)[C@H](CO)N(C[C@]13CN(C1)C(=O)CN1CCOCC1)C(=O)Nc1ccc(cc1)F", "relative growth": "inactive: 0.962"}, {"smiles": "Cc1ccccc1N1CCN(S(=O)(=O)C[C@@]23CC[C@@H](C[C@@H]2NC(=O)[C@@H](N)CCS(C)(=O)=O)C3(C)C)CC1", "relative growth": "inactive: 0.984"}, {"smiles": "COc1ccccc1-c1ccc2c(c1)O[C@@H](CN(C)CC1CCOCC1)[C@@H](C)CN([C@H](C)CO)S2(=O)=O", "relative growth": "inactive: 1.02"}, {"smiles": "COc1cccc(C#Cc2cnc3c(c2)C(=O)N([C@@H](C)CO)C[C@H](C)[C@@H](CN(C)C(=O)C2CCOCC2)O3)c1", "relative growth": "inactive: 0.998"}, {"smiles": "O=C1O[C@H](c2ccccc2)[C@H](c2ccccc2)N2[C@H]1[C@@H](C(=O)NC[C@@H](O)c1ccccc1)[C@]1(C(=O)Nc3ccc(C#CC4(O)CCCCCC4)cc31)[C@H]2c1ccccc1OCCO", "relative growth": "inactive: 1.04"}]}]}
